Data from article PMC4081100.
The list shows a part of the results, in another mix than the full data. For part of these data: At the low end of the ranking, values are background and their order means little. The list shows a part of the results. For part of these data: The exact form of the protein is not confirmed.

How the values were obtained:
Assay in all cases: universal protein binding microarray (PBM)
Conditions in all cases: transcription factors of Arabidopsis thaliana; high values mean tight binding; most listed sequences are background and not binding sites; double strand, one strand shown
GST-ANAC092(1-176) = molecular target: T1, GST-ANAC092(1-176) (UniProt Q9FKA0)
T1 sequence: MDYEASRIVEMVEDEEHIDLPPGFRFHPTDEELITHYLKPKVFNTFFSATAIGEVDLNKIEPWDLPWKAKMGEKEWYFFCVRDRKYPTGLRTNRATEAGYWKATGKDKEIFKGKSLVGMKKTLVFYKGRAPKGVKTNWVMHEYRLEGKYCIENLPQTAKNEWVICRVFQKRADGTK

GST-NTL6(1-168) = GST-NTL6(1-168) (UniProt Q9SCK6)
GST-ANAC019 NAC domain = molecular target: T2, GST-ANAC019 NAC domain (UniProt Q9C932)
T2 sequence: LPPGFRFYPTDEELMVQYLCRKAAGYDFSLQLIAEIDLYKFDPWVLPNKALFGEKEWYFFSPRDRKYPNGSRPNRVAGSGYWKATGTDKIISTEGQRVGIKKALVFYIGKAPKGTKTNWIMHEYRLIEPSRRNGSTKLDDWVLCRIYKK

GST-ANAC055(1-171) = molecular target: T3, GST-ANAC055(1-171) (UniProt Q9LDY8)
T3 sequence: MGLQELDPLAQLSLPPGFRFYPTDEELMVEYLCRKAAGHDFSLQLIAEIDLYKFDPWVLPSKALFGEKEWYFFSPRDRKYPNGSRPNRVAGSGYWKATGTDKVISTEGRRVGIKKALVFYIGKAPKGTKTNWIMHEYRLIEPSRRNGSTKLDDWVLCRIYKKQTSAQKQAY

[1] = molecular target: T4, GST-ANAC092(1-285) full length (UniProt Q9FKA0)
T4 sequence: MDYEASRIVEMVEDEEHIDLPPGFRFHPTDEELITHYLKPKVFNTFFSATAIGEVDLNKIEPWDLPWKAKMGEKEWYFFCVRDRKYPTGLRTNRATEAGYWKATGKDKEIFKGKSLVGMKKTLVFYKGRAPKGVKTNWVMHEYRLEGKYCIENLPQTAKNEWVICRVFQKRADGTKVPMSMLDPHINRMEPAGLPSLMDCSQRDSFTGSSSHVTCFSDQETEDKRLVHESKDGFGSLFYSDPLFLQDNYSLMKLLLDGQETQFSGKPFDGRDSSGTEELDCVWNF

GST-NAP(1-166) = molecular target: T5, GST-NAP(1-166) (UniProt O49255)
T5 sequence: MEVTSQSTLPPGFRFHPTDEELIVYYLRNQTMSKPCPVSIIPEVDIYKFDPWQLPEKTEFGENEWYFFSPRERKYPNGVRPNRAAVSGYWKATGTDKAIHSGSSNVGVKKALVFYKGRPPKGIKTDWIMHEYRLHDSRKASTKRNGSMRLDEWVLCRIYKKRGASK

GST-NST2(1-184) = molecular target: T6, GST-NST2(1-184) (UniProt Q9M274)
T6 sequence: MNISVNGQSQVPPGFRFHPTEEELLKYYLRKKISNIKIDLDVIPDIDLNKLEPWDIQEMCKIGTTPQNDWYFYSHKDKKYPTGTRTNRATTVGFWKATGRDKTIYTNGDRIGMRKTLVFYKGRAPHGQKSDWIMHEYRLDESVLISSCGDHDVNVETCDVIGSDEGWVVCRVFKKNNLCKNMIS

GST-NTL8 NAC domain = molecular target: T7, GST-NTL8 NAC domain (UniProt Q9XIN7)
T7 sequence: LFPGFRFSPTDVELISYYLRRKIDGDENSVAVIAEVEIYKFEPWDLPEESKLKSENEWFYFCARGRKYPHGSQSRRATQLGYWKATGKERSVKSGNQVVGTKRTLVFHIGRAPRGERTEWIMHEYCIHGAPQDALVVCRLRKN

GST-SND1(1-203) = molecular target: T8, GST-SND1(1-203) (UniProt Q9LPI7)
T8 sequence: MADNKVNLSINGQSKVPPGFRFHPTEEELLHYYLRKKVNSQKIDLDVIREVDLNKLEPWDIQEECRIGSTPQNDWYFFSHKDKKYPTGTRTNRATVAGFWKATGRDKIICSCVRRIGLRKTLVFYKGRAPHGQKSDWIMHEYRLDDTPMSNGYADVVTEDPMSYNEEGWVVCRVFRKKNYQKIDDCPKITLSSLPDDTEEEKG

GST-VND7 NAC domain = molecular target: T9, GST-VND7 NAC domain (UniProt Q9C8W9)
T9 sequence: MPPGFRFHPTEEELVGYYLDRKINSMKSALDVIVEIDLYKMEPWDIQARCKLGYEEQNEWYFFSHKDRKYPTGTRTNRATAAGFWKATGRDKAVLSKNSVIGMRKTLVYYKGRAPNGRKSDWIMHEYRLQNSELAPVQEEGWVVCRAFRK

[2] = molecular target: T10, GST-VOZ2 (Arabidopsis thaliana) (UniProt Q9SLB9)
T10 sequence: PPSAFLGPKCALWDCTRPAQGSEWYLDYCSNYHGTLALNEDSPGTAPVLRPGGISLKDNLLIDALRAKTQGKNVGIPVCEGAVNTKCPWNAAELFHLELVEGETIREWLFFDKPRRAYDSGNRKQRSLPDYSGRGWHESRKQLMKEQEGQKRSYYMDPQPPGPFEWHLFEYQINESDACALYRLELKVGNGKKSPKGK

GST-ATAF1 NAC domain = molecular target: T11, GST-ATAF1 NAC domain (UniProt Q39013)
T11 sequence: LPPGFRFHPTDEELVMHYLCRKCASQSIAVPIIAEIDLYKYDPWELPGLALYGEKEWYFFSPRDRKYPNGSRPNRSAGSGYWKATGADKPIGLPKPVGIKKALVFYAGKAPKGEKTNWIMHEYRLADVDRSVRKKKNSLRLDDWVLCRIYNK

GST-WRKY1(266-371) = GST-WRKY1(266-371) (UniProt Q9SI37)
UniProt Q9SI37, sequence (Q9SI37 266-371): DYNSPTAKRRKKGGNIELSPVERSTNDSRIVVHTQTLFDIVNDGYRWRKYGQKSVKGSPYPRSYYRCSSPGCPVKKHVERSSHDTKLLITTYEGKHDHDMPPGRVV

| Sequence | binding signal (GST-ANAC092(1-176)) | binding signal (GST-NTL6(1-168)) | binding signal (GST-ANAC019 NAC domain) | binding signal (GST-ANAC055(1-171)) | binding signal [1] | binding signal (GST-NAP(1-166)) | binding signal (GST-NST2(1-184)) | binding signal (GST-NTL8 NAC domain) | binding signal (GST-SND1(1-203)) | binding signal (GST-VND7 NAC domain) | binding signal [2] | binding signal (GST-ATAF1 NAC domain) | binding signal (GST-WRKY1(266-371)) |
| --- | --- | --- | --- | --- | --- | --- | --- | --- | --- | --- | --- | --- | --- |
| ATTAGTCA | 0.0025 E-score | -0.107 E-score | -0.0828 E-score | 0.0956 E-score | 0.0225 E-score | -0.0764 E-score | -0.0582 E-score | -0.0474 E-score | -0.0574 E-score | -0.0672 E-score | 0.000215 E-score | – | – |
| ACAGGGAA | – | – | -0.041 E-score | – | -0.00859 E-score | – | – | – | 0.108 E-score | -0.012 E-score | 0.052 E-score | -0.0736 E-score | -0.0105 E-score |
| GTCAACAC | – | -0.00594 E-score | – | – | – | – | – | 0.00296 E-score | 0.134 E-score | 0.154 E-score | -0.00119 E-score | 0.092 E-score | – |
| CATTGACG | 0.0178 E-score | -0.0472 E-score | -0.05 E-score | -0.0643 E-score | – | 0.0312 E-score | -0.0094 E-score | -0.149 E-score | -0.0678 E-score | -0.154 E-score | -0.0109 E-score | -0.00158 E-score | – |
| AGAAAGTC | -0.00235 E-score | -0.00031 E-score | – | – | 0.00409 E-score | -0.0145 E-score | -0.0367 E-score | 0.0673 E-score | -0.0376 E-score | 0.0428 E-score | -0.248 E-score | 0.103 E-score | – |
| TAGGTCAA | -0.047 E-score | -0.0258 E-score | 0.0197 E-score | 0.077 E-score | -0.0154 E-score | -0.109 E-score | -0.0594 E-score | -0.0182 E-score | -0.0812 E-score | -0.0159 E-score | 0.0435 E-score | – | – |
| CAAGACCA | – | 0.0845 E-score | -0.0124 E-score | – | -0.0144 E-score | 0.0384 E-score | – | 0.0107 E-score | 0.0384 E-score | -0.0105 E-score | 0.0104 E-score | 0.0751 E-score | – |
| GGTCATAC | -0.0825 E-score | -0.0412 E-score | -0.0286 E-score | 0.0279 E-score | 0.0464 E-score | 0.108 E-score | -0.064 E-score | -0.0306 E-score | 0.0207 E-score | -0.153 E-score | -0.00314 E-score | 0.0109 E-score | – |
| ACGCAAAG | – | 0.102 E-score | – | 0.228 E-score | 0.452 E-score | – | – | – | 0.407 E-score | 0.346 E-score | 0.16 E-score | – | – |
| GGATTGAC | – | 0.0579 E-score | – | – | 0.0192 E-score | – | – | -0.0265 E-score | 0.00967 E-score | 0.034 E-score | 0.0672 E-score | 0.0383 E-score | – |
| AGAGGTAA | – | – | – | 0.0996 E-score | 0.0189 E-score | – | 0.049 E-score | – | -0.0037 E-score | -0.0261 E-score | -0.00824 E-score | 0.106 E-score | -0.0457 E-score |
| GTTGCTTA | – | – | 0.00421 E-score | – | 0.393 E-score | 0.0145 E-score | – | 0.13 E-score | 0.469 E-score | 0.14 E-score | 0.0351 E-score | – | -0.122 E-score |
| GTTAAGGA | – | – | – | – | – | 0.0155 E-score | – | – | 0.276 E-score | 0.0488 E-score | 0.012 E-score | – | – |
| AGTCAACG | 0.0152 E-score | 0.0192 E-score | – | 0.00777 E-score | – | 0.0565 E-score | – | -0.0613 E-score | 0.0187 E-score | 0.0338 E-score | 0.0056 E-score | 0.0469 E-score | – |
| ATTGCTTG | – | – | – | – | 0.408 E-score | -0.0157 E-score | 0.296 E-score | 0.143 E-score | 0.406 E-score | 0.218 E-score | -0.0506 E-score | 0.00945 E-score | -0.00292 E-score |
| ATTTTGAC | 0.0462 E-score | 0.0308 E-score | -0.0216 E-score | 0.0321 E-score | – | -0.00087 E-score | 0.0826 E-score | 0.0371 E-score | 0.0389 E-score | 0.0311 E-score | 0.063 E-score | – | – |
